# Reference: PubChem BioAssay (NCI)
#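 Five concentrations, 48 hours, 96-well plates. GI50 = concentration required for 50% inhibition of growth. TGI is the concentration that stops growth completely.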
# Test system: NCI-H322M lung
# Test: inhibition of tumour cell growth, NCI panel, 48 h
compound,measurement,value
C#CCNC1CCC(c2csc(C#C)n2)=C1C (configuration not stated),GI50,23.5 µM
same,TGI,> 100 µM
